# Data published in publication PMC4336329 (PLoS ONE, 2015).
# About 2,200 (0.71%) of roughly 310,000 compounds showed an effect of 50% or more. The effect is printed as a negative number. This is one part of the list.
# Target: human ether-à-go-go-related gene (hERG) potassium channel (human, UniProt Q12809)
# Assay: primary screen, population patch clamp on CHO cells stably expressing hERG
# human ether-à-go-go-related gene (hERG) potassium channel, sequence (Q12809 whole entry, looked up): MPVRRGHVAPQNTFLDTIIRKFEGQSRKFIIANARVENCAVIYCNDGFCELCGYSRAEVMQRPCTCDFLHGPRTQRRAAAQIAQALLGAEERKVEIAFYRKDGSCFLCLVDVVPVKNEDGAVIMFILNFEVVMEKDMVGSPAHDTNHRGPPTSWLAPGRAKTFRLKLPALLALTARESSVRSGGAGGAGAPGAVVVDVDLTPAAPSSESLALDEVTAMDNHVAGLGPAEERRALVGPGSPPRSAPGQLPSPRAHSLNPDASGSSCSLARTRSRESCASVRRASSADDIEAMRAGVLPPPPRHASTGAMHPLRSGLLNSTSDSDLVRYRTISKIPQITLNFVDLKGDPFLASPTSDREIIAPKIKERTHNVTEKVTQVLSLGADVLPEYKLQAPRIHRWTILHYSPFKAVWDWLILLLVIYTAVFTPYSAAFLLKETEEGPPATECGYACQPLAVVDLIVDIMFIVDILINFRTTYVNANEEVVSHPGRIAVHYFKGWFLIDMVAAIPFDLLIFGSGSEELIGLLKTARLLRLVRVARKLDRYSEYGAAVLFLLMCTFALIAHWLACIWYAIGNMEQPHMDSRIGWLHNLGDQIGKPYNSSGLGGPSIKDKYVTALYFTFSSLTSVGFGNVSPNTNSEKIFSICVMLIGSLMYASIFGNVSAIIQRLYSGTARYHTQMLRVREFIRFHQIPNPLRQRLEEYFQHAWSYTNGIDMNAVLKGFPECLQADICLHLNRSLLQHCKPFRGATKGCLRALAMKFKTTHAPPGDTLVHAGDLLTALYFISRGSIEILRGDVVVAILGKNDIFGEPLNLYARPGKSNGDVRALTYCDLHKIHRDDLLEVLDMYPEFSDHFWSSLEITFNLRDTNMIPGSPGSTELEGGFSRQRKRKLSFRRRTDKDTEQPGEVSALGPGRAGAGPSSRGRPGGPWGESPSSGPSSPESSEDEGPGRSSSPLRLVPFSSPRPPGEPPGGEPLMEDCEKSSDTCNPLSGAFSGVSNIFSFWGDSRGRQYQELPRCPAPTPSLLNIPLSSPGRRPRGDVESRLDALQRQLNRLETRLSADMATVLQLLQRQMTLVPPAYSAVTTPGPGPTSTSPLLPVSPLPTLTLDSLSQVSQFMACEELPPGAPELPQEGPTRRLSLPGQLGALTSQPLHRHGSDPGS
row,Structure (SMILES),"hERG current change (%, negative = inhibition) at 1uM [%]"
1,CCN(Cc1ccc2c(c1)OCO2)C(=O)/C=C/c1cccc(Br)c1,17.8
2,Cc1cccc(C(=O)Nc2nc(C)c(C(=O)Nc3ccc4c(c3)CCC4)s2)c1,17.9
3,COc1ccc(NC(=O)N2CCC(CO)(CC3CCCCO3)CC2)c(OC)c1 (stereo not drawn),9.96
4,COc1ccc2c(c1)S(=O)(=O)c1ccccc1N2,12.3
5,Cc1ccc(S(=O)(=O)N2CCN(Cc3ccccc3C(F)(F)F)CC2)cc1,5.56
6,Cc1cc(NS(=O)(=O)c2ccc(Nc3nc(-c4ccc(O)cc4)cs3)cc2)no1,9.78
7,O=C(O)c1cccc(COc2cccc3ccccc23)c1,7.07
8,COc1ccc2c(c1)C(c1ccccc1)NC(=O)C2 (stereo not drawn),6.67
9,CCOC(=O)c1c(NC(=O)CC2Nc3cc(C)c(C)cc3NC2=O)sc(C)c1C (stereo not drawn),2.74
10,O=C1CC(=O)N(c2cccc(C(F)(F)F)c2)C(=O)N1,18.7
11,c1ccc(-c2cc3c(nn2)CCc2nonc2-3)cc1,12.1
12,O=C(NC(=S)Nc1ccc2c(c1)C(=O)c1ccccc1C2=O)c1ccc(F)cc1,15.7
13,Cc1ccc(/C=C/C(=O)c2ccccc2O)cc1,16.9
14,CCCCC1=CC2=CC(=O)C(C)(OC(=O)CC)C(=O)C2=CN1c1ccccc1 (stereo not drawn),11.2
15,CCCOC(=O)NC1CCS(=O)(=O)C1 (stereo not drawn),16.3
16,Cc1c(C(=O)NCCc2ccccc2)oc2ccccc12,13
17,CCc1nnc2n1N=C(c1ccc([N+](=O)[O-])cc1)CS2,-7.51
18,COc1ccc2c(c1OC)C(=O)OC2CC(=O)c1ccc(N(C)C)cc1 (stereo not drawn),2.12
19,CCN(CCn1cccn1)C(=O)C1CCC(=O)N(CCN2CCOCC2)C1 (stereo not drawn),13.2
20,O=C(Nc1ccccc1)C1(c2ccccc2)CC1(Cl)Cl (stereo not drawn),7.93
21,C/C(=N/NS(=O)(=O)c1cccc([N+](=O)[O-])c1)c1ccc2c(c1)OCO2,14.4
22,c1ccc(-c2nc(N3CCOCC3)c3ccccc3n2)nc1,5.13

row,Structure (SMILES),"hERG current change (%, negative = inhibition) at 1uM [%]"
1,CC1CCc2cc(F)ccc2N1C(=O)c1ccc2c(c1)OCO2 (stereo not drawn),5.72
2,N#CCSc1nc2ccccc2c2nc3ccccc3n12,8.73
3,O=C(COc1ccc2ccccc2c1)N1c2ccccc2Sc2ccccc21,4.35
4,COc1ccc(C)cc1N1C(=N)/C(=C2/Nc3ccccc3S2)C(c2ccccc2)C1=O (stereo not drawn),13.3
5,N#Cc1ccccc1OCC(=O)OCC(=O)N1CCN(C(=O)c2ccco2)CC1,10.3
6,CC(C)C[C@@]12C(=O)N(c3cccc(Cl)c3)C(=O)N1[C@H](c1ccc(Br)cc1)[C@@H]1C(=O)N(C(C)(C)C)C(=O)[C@@H]12,17.6
7,CC1(c2ccc(OC(F)F)cc2)NC(=O)N(CC(=O)Nc2ccc(F)cc2)C1=O (stereo not drawn),-15.6
8,Clc1ccccc1Nc1nc(-c2cccnc2)cs1,8.71
9,O=C(CCN=C1NS(=O)(=O)c2ccccc21)OCC(=O)c1ccccc1Cl,-0.761
10,COc1cccc(-c2cc(C(F)(F)F)n3ncc(C(=O)O)c3n2)c1,12.7
11,CCOC(=O)Cn1c(C)cc(COC)c(C#N)c1=O,10.8
12,COc1ccc2c(c1)C1NC(=S)N[C@@](C)(O2)C1C(=O)Nc1ccccc1 (stereo partly drawn),3.32
13,O=C(NCCCCc1ccccc1)Nc1ccc(F)cc1,10.4
14,CCc1ccc(OCC(=O)N(Cc2cccs2)C2CCS(=O)(=O)C2)cc1 (stereo not drawn),2.68
15,CCc1csc(CCNC(=O)C2CCC(=O)N(Cc3cccc(C(F)(F)F)c3)C2)n1 (stereo not drawn),10.8
16,Cc1ccc(S(=O)(=O)N2CCN(C(=O)Cc3ccccc3)CC2)cc1C,8.01
17,Cc1ccc2c(c1)c1nnc(SCC(=O)N3CCN(c4ccc(F)cc4)CC3)nc1n2CC(=O)O,-11.7
18,COc1ccc(C2=NS(=O)(=O)N(C)C(C(=O)N3CCC4(CC3)OCCO4)=C2)cc1OC,16.8
19,N#C/C(=C/c1ccc(N2CCOCC2)o1)C(=O)N1CCOCC1,21
20,Cc1ccc(/C=N/NC(=O)c2ccc(NC(=O)c3ccccc3Cl)cc2)o1,9.83
21,CCN(CC)c1ccc(/C=N/NC(=O)c2cccc(N3CCCC3=O)c2)cc1,-3.06
22,Cc1cc2nc(-c3cccc(NC(=O)c4ccc(Br)o4)c3C)oc2cc1C,3.81

row,Structure (SMILES),"hERG current change (%, negative = inhibition) at 1uM [%]"
1,COc1ccccc1NC(=O)C1CCCN(S(=O)(=O)c2ccc(-n3cnnn3)cc2)C1 (stereo not drawn),-23.5
2,Cc1ccc(OCC(=O)Nc2ccc(N3CCN(S(C)(=O)=O)CC3)cc2)cc1C,10.8
3,COc1ccc(NC(=O)COc2ccc(-c3nn(C)c(=O)c4ccccc34)cc2)cc1,11.9
4,O=C(Nc1cc(S(=O)(=O)N2CCOCC2)ccc1Cl)C1CCC1,5.68
5,Cc1ccccc1CS(=O)(=O)Cc1ccc(C(=O)NC2CCCCC2)o1,7.45
6,CCC(C)c1ccc(NC(=S)N2CCCC2)cc1 (stereo not drawn),9.73
7,CC(C)C(=O)Nc1cccc(C(=O)Nc2ccc(S(=O)(=O)N3CCOCC3)cc2)c1,15.2
8,CCCC(O)(c1ccc(Br)cc1)C(CN1CCOCC1)c1ccc(Cl)cc1.Cl (stereo not drawn),7.9
9,O=C(CNC(=O)c1cc(S(=O)(=O)N2CCCCC2)ccc1N1CCOCC1)Nc1ccc(F)c(F)c1,24
10,CC1CCN(C(=O)Cn2c(=O)n(Cc3ccco3)c(=O)c3sccc32)CC1,10.1
11,O=C(Cc1ccccc1)NCCC1=CCCCC1,9.71
12,CCC(=O)c1ccc(OCC(=O)OC(C)C(=O)N2CCc3ccccc32)cc1 (stereo not drawn),4.6
13,O=C(CSc1nccn1-c1ccccc1)NO,8
14,COc1ccc(CN2CCC(C(=O)Nc3ccc(Oc4cccnc4)cc3)CC2)cc1,-41.5
15,CC(C)c1onc(C(=O)N2CCOCC2)c1[N+](=O)[O-],9.92
16,NNC(=O)CNC(=O)C12CC3CC(CC(C3)C1)C2,11.7
17,O=C(Cn1cnc2c(nnn2Cc2ccccc2F)c1=O)N1CCN(c2ccccc2)CC1,5.04
18,NC(=O)CSc1nnc(Cc2cccs2)n1C1CCCCC1,9.22
19,COc1ccc(C(NC(=O)c2ccc(F)cc2)c2ccccc2)cc1 (stereo not drawn),-13.2
20,O.O=c1c2sc3nc(N4CCOCC4)c4c(c3c2nnn1Cc1ccccc1)CCCC4,8.41
21,COc1cccc(NC(=O)Cn2c(=O)n(CCC(=O)NC3CCN(Cc4ccccc4)CC3)c(=O)c3ccccc32)c1,-7.29
22,O=C(NC1CCCCC1)C(c1ccncc1)N(Cc1ccc2c(c1)OCO2)C(=O)C(F)(F)F (stereo not drawn),5.84

row,Structure (SMILES),"hERG current change (%, negative = inhibition) at 1uM [%]"
1,O=S(=O)(NCc1ccccc1)c1ccc(Cl)cc1,15.7
2,COc1ccc(S(=O)(=O)N2CCN(c3c(C)cccc3C)CC2)cc1OC,7.19
3,Cc1oc(-c2ccccc2Cl)nc1CS(=O)(=O)CC(=O)NC1CCCC1,-1.67
4,O=C(CNC(=O)c1ccccc1F)NC1CC1,11
5,Fc1cccc(Cl)c1Cn1nnc2c(N3CCC4(CC3)OCCO4)ncnc21,13.7
6,Cc1ccc(C(=O)Oc2ccc([N+](=O)[O-])cc2)cc1S(=O)(=O)N1CCCCCC1,9.64
7,CCOC(=O)C1(CC2CCCCO2)CCN(Cc2c(C)cc(C)cc2-n2cccn2)CC1 (stereo not drawn),-84.1
8,c1ccc(NC2=Nc3cccc4cccc2c34)cc1,12.1
9,COc1ccc(OC)c(CCNC(=O)C(=O)Nc2ccc3nc4n(c(=O)c3c2)CCCCC4)c1,6.8
10,CC(NC(=O)c1ccc(=O)oc1)c1ccccc1 (stereo not drawn),3.24
11,CN1CCN(C(=O)/C=C/c2ccc([N+](=O)[O-])cc2)CC1,-48.5
12,Cc1ccc(NS(=O)(=O)c2ccc(CCC(=O)NC3CC3)cc2)cc1,9.77
13,CC1CCCCN1C(=O)CCNS(=O)(=O)c1ccc2c(c1)c(=O)n(C)c(=O)n2C (stereo not drawn),5.35
14,O=C(CCc1ccccc1)Nc1ccc(NC(=O)c2ccco2)cc1,5.34
15,CC(C)c1nc(Cl)c(C#N)c2c1CCC2,9.85
16,O=C(c1ccccc1Cl)N1CCn2c1nc1ccccc12,10.5
17,Cl.N=c1c2c(n(Cc3ccc([N+](=O)[O-])cc3)c3c1CCC3)CCCC2,6.83
18,COc1ccc(N2CC(C(=O)N/N=C/c3cccs3)CC2=O)cc1 (stereo not drawn),9.66
19,Cc1ccc(C)c(OCCN2CCOCC2)c1,13.2
20,COc1cc2[nH]c(=O)n(Cc3ccc(C(=O)N4CCC(N5CCCCC5)CC4)cc3)c(=O)c2cc1OC,12.6
21,COc1ccc(N(CC(=O)NCc2ccco2)C(=O)CCC(=O)Nc2nccs2)c(OC)c1,-2.41
